Experimental data reported in paper PMC10726135.
The other results are listed elsewhere or left out. At the low end of the ranking the order means little. The protein was read in a cell extract, so binding may be indirect.

What follows are sequences tested against T1, HNF4alpha2 (COS-7 nuclear extract) (UniProt P41235) (assay: protein-binding microarray). Conditions: COS-7 nuclear extract on double-stranded Agilent 4x180k PBM; binding buffer, salt, pH and temperature not given; high values mean tight binding; double strand, one strand shown; sequences stand for … in …GCCTAGGGAGATTAGAGTATCGGTCGA.
T1 sequence: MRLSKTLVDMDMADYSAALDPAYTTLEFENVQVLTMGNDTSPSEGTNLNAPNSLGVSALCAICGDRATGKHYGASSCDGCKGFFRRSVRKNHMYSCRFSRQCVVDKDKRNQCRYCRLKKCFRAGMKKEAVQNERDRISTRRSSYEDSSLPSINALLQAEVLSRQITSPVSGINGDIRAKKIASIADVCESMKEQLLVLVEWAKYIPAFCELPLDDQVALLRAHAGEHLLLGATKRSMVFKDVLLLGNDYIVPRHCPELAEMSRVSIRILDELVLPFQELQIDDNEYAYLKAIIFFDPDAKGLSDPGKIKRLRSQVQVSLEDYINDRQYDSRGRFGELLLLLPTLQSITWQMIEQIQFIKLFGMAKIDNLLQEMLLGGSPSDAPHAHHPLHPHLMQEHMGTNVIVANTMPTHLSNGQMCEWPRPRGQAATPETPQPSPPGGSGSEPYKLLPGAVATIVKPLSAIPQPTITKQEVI

Sequence | binding signal (log2 normalized intensity)
TAAACTAAGATATTGGTAAGTTAAGTAACT | -0.668
AAGATGAAAGACGAAAGGGACTTTGATCTT | 6.37
GCCAGATTGAGAAACACATTCTTAGACAAC | -0.897
CTGGGGCCGGGAGCAGGGAGCGAGACGCTG | -1.06
CCCAGAGGTCAAACTATCTGAGGTGGTCCA | 1.71
AAGGATTATTACATGTTTACCCACATACAA | 0.684
ACTGGCCCATTAGAACAAAGATCAAAGCAG | -1.24
GGCGCGGGATCCTCTTTCCTGCAGGCCCAT | -1.06
GGTATCAGAGTGGAGCCAGATGCACACAGG | -1.11
TGGTGGCACAGGGAATGGCTCGTATGAATG | 0.46
AGAAACGCCTGGCGCTTATCTGAGCACACA | -1.2
AATGATATGGACAATGAAATTCAGGCTGAG | -0.673
CTTTCTCTCTCCCTTCCTGGAGCCAAGGTT | 1.81
TTTGCAATGTAAACATCAAGGAAGAGAACT | -0.31
TTCTCCCCCGATAAGGCTGCCTCCTATCCT | 2.59
TTATCATTACTTCTCAACTGATATGGCTCT | 1.03
CAGCGTGAACTTTGACATGAGAGAAAAGAA | 2.7
AACTGGTTCTGTGGAATTTGTGCTTATTTC | 1.79
CATGTGCCAGATATGCCGAGAATGCAGCCT | -1.1
TGATGTTCCCCCTCCCTGGACTCCTGGGAC | 4.16
GTGAGAATCCCAGCTCGTGGGCATGCCTCC | -1.13
GGGCCACGCCCTGCACCCTACGTAAATGCA | -1.03
CACAAACATCACCTACCTGACTCCTTAGGG | -1.16
GTTTTCCCATTCATGACATTGATTTATTGT | 2.01

Sequence | binding signal (log2 normalized intensity)
CACTGTTGCCCCTTCCAAAGTCCACCTCAA | 4.43
CTAGGAGAGTCCGGGGCAAACAAGGGCAAC | -0.823
ATGATACAGCCTTTTGCCCCCAGGCTGCAA | 3.19
TCTATTCTATCTGTATTCTGAAGCCCTACA | -0.784
AAAGAAGAATGTGGCCATTTTACTTGTCAA | -1.08
ACTCACTAGCATTAGGACCTGTTTGTCTTG | 1.26
GCTTCTGCCCCAGACACGCTTGACTGGCTC | -1.11
ACCAGGGGTCATTTTATGGGAAAACAGAAT | 0.785
ATAACATGAGGATACTGATAACATGAGGTA | -0.454
ACAGACTCTGGGAGATAAAGCAGAGGGCTG | -1.14
AGAGCAATCTCTCATCTGCCTTGTGATTTC | 0.307
CAGCCACGCTCCTCTTATCATTAGATTCCA | -1.2
AGGAGATGTGGTGGACTTTAACGACCTTTG | 4.66
TATCTGTAAAATGGACATAGTAACAACCTA | -1.06
CACAGTGTAGAAGGCAAGGGTCAAGATGTC | 1.8
AGAGAATAGCTCAGGTCCAAGGAACCTCAC | -1.14
TTCGGTGCTGACCTTTGTTCACATTTGTGC | 5.06
GAGAAGTGAACTTTGCCCTCTCTTTCTGGA | 7.55
CAGATGTTTCTGCAAGCACACTGTCCTGCT | -0.824
GAACTGAAAGAGACCTTTGACATCACCTAA | 2.04
GATCGATCACACAGACAGACATTCAGAAAC | -1.09
GCTTGTCGAGGACAGGATGGGGGTGGGAGG | -1.13
CTAGGCAGCATAGGGCCACTTTGTCCTTCA | -0.256
TCAGGAGAGGAGGCCCACACCCCTGGGGAA | -1.17

Sequence | binding signal (log2 normalized intensity)
GCTAGAGATTCTCCCTGGGGCCTCTGAAGT | -1.21
TCCGAACGCCAGCAGCAGGGTCAGAAGGGA | -1.21
ACAGTGACGTTCTGCCCCTTATCTTCTGGC | 2.09
CTCAATCGCCTTTTATTTTTCCCCTGAAAT | 2.47
CCTCACAATCTTAAGATAAGGTCTTTCTGA | 0.361
GTCAGGCAGAGAGGGACTCTGACCCAGGAG | 2.26
TGGCATTCCAGGATGAAGGAAGAGGGAAGA | -1.05
GTCCAAGGACTCAATGATACCATCAGATAC | -1.2
TCTGTCCTGAGATGTCTGCTTCTTGGGTCA | 2.03
CCATCCCCCAATACACACACACCCCTCCAC | 6.43
AGGGTTAAGCTCATGCTTTCATCTCCCCAA | 2.09
CCGCGATTAAAAATGGAACAGTAAGTGTTA | 1.2
TGTCAAAGGGAGAAAGACATGTTTCTAACT | -1.01
ATACAAGTCGTAAAGACCTTGCTGATTACA | -1.21
CAAGCCCTCTAACTATGCAGTGTCCATGGT | 1.39
GTCTGAGCACATCACACAGGCATATTTGGT | -0.509
TCTGCTTGCAACCAAAGGAGTCCTGGCTGA | -1.23
GGTGGGCAGAGGCCTGATGGTGAGTTCTGT | -0.779
ATTTGGACTTTTTGTAGTTTCAGCTTCTTC | 1.54
CGGTGCATTTTTTTCCACCCTCCCCTCCCC | 5.05
TTGACCTTTATACCTGTACGTTACTCTGTA | 3.65
AACCCTGGCTGGAGTTGCTGAAATTCCCAC | -0.732
AAATTGATCTAGATAAGTTAGTTTACTTAG | 0.0866
CACTGGGCTGATGACCTTTGACTGAGATGG | 5.32
